# The list shows a part of the results.
# Key:
# Experiment in all cases: glycan array binding signal (z-score within array); higher = stronger binding
# Conditions in all cases: glycan notation: IUPAC condensed, linker removed
# [1] = target: GlcNAc(b1-4)GlcNAc(b1-4)GlcNAc(b1-4)GlcNAc(b1-4)GlcNAc
# Procedure, shortened: (§1)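 Glycan array data came from 3228 arrays in the Consortium for Functional Glycomics database, and only arrays with an available protein sequence were kept. Glycan names were put into IUPAC-condensed notation, and columns mapping to the same glycan were averaged. The binding signal is a within-array Z-score, averaged across arrays of one protein sequence run at different concentrations or buffers and across linkers. A negative Z-score can be read as non-binding.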
# [2] = target: GlcNAc(b1-4)GlcNAc(b1-4)GlcNAc(b1-4)GlcNAc(b1-4)GlcNAc(b1-4)GlcNAc
# Procedure, shortened: as §1
# [3] = target: GlcNAc(b1-4)[GlcNAc(b1-6)]GalNAc
# Procedure, shortened: as §1
# [4] = target: GlcNAc(b1-6)Gal(b1-4)GlcNAc
# Procedure, shortened: as §1
# [5] = target: GlcNAc(b1-6)GalNAc
# Procedure, shortened: as §1
# [6] = target: GlcNAc6S(b1-3)Gal(b1-4)GlcNAc
# Procedure, shortened: as §1
# [7] = target: Kdn(a2-3)Gal(b1-3)GalNAc
# Procedure, shortened: as §1
# [8] = target: Kdn(a2-3)Gal(b1-3)GlcNAc
# Procedure, shortened: as §1
# [9] = target: Kdn(a2-3)Gal(b1-4)Glc
# Procedure, shortened: as §1
# [10] = target: Kdn(a2-3)Gal(b1-4)GlcNAc
# Procedure, shortened: as §1
# [11] = target: Kdn(a2-3)Gal(b1-4)[Fuc(a1-3)]GlcNAc
# Procedure, shortened: as §1
# [12] = target: Kdn(a2-6)Gal(b1-4)GlcNAc
# Procedure, shortened: as §1
# [13] = target: Man(a1-2)Man(a1-2)Man(a1-3)Man
# Procedure, shortened: as §1
# [14] = target: Man(a1-2)Man(a1-2)Man(a1-6)[Man(a1-3)]Man
# Procedure, shortened: as §1
# [15] = target: Man(a1-2)Man(a1-3)Man
# Procedure, shortened: as §1
# [16] = target: Man(a1-2)Man(a1-3)[Man(a1-2)Man(a1-6)]Man
# Procedure, shortened: as §1
# [17] = target: Man(a1-2)Man(a1-3)[Man(a1-2)Man(a1-6)]Man(a1-6)[Man(a1-2)Man(a1-2)Man(a1-3)]Man
# Procedure, shortened: as §1
# [18] = target: Man(a1-2)Man(a1-3)[Man(a1-2)Man(a1-6)]Man(a1-6)[Man(a1-2)Man(a1-2)Man(a1-3)]Man(b1-4)GlcNAc(b1-4)GlcNAc
# Procedure, shortened: as §1
# [19] = target: Man(a1-2)Man(a1-3)[Man(a1-6)]Man(a1-6)[Man(a1-2)Man(a1-3)]Man(b1-4)GlcNAc(b1-4)GlcNAc
# Procedure, shortened: as §1
# [20] = target: Man(a1-2)Man(a1-6)[Man(a1-3)]Man(a1-6)[Man(a1-2)Man(a1-2)Man(a1-3)]Man
# Procedure, shortened: as §1
# [21] = target: Man(a1-2)Man(a1-6)[Man(a1-3)]Man(a1-6)[Man(a1-2)Man(a1-2)Man(a1-3)]Man(b1-4)GlcNAc(b1-4)GlcNAc
# Procedure, shortened: as §1
# [22] = target: Man(a1-3)[Man(a1-6)]Man
# Procedure, shortened: as §1
# [23] = target: Man(a1-3)[Man(a1-6)]Man(a1-6)[Man(a1-2)Man(a1-3)]Man(b1-4)GlcNAc(b1-4)GlcNAc
# Procedure, shortened: as §1
# [24] = target: Man(a1-3)[Man(a1-6)]Man(a1-6)[Man(a1-3)]Man
# Procedure, shortened: as §1
# [25] = target: Man(a1-3)[Man(a1-6)]Man(a1-6)[Man(a1-3)]Man(b1-4)GlcNAc(b1-4)GlcNAc
# Procedure, shortened: as §1
# [26] = target: Man(a1-3)[Man(a1-6)]Man(b1-4)GlcNAc(b1-4)GlcNAc
# Procedure, shortened: as §1
# [27] = target: Man(a1-3)[Man(a1-6)]Man(b1-4)GlcNAc(b1-4)[Fuc(a1-6)]GlcNAc
# Procedure, shortened: as §1
# [28] = target: Man(a1-6)Man
# Procedure, shortened: as §1
# [29] = target: Man(b1-4)GlcNAc
# Procedure, shortened: as §1
# [30] = target: MurNAc(b1-4)GlcNAc
# Procedure, shortened: as §1
# [31] = target: Neu5Ac(a2-3)Gal
# Procedure, shortened: as §1
# [32] = target: Neu5Ac(a2-3)Gal(b1-3)GalNAc
# Procedure, shortened: as §1
# [33] = target: Neu5Ac(a2-3)Gal(b1-3)GalNAc(b1-3)Gal(a1-4)Gal(b1-4)Glc
# Procedure, shortened: as §1
# [34] = target: Neu5Ac(a2-3)Gal(b1-3)GalNAc(b1-4)Gal(b1-4)Glc
# Procedure, shortened: as §1
# [35] = target: Neu5Ac(a2-3)Gal(b1-3)GalNAc(b1-4)[Neu5Ac(a2-3)]Gal(b1-4)Glc
# Procedure, shortened: as §1
# [36] = target: Neu5Ac(a2-3)Gal(b1-3)GalNAc(b1-4)[Neu5Ac(a2-8)Neu5Ac(a2-3)]Gal(b1-4)Glc
# Procedure, shortened: as §1
# [37] = target: Neu5Ac(a2-3)Gal(b1-3)GalNAc6S
# Procedure, shortened: as §1
# [38] = target: Neu5Ac(a2-3)Gal(b1-3)GlcNAc
# Procedure, shortened: as §1
# [39] = target: Neu5Ac(a2-3)Gal(b1-3)GlcNAc(b1-2)Man
# Procedure, shortened: as §1
# [40] = target: Neu5Ac(a2-3)Gal(b1-3)GlcNAc(b1-2)Man(a1-3)[GlcNAc(b1-4)][Neu5Ac(a2-3)Gal(b1-3)GlcNAc(b1-2)Man(a1-6)]Man(b1-4)GlcNAc(b1-4)GlcNAc
# Procedure, shortened: as §1
# [41] = target: Neu5Ac(a2-3)Gal(b1-3)GlcNAc(b1-2)Man(a1-3)[Neu5Ac(a2-3)Gal(b1-3)GlcNAc(b1-2)Man(a1-6)]Man(b1-4)GlcNAc(b1-4)GlcNAc
# Procedure, shortened: as §1
# [42] = target: Neu5Ac(a2-3)Gal(b1-3)GlcNAc(b1-2)[Neu5Ac(a2-3)Gal(b1-3)GlcNAc(b1-4)]Man(a1-6)[Neu5Ac(a2-3)Gal(b1-3)GlcNAc(b1-2)Man(a1-3)]Man(b1-4)GlcNAc(b1-4)GlcNAc
# Procedure, shortened: as §1
# [43] = target: Neu5Ac(a2-3)Gal(b1-3)GlcNAc(b1-3)Gal(b1-3)GlcNAc
# Procedure, shortened: as §1
# [44] = target: Neu5Ac(a2-3)Gal(b1-3)GlcNAc(b1-3)Gal(b1-4)GlcNAc
# Procedure, shortened: as §1
# [45] = target: Neu5Ac(a2-3)Gal(b1-3)GlcNAc(b1-3)GalNAc
# Procedure, shortened: as §1
binder,measurement,setting,value
CTAEGIKKFEGDGYELFKDNFPAGEKFDNDDTNDQFYTVIF [MUB40 (Lactobacillus reuteri)],glycan array binding signal (z-score),[1],0.013
same,glycan array binding signal (z-score),[2],-0.138
same,glycan array binding signal (z-score),[3],-0.633
same,glycan array binding signal (z-score),[4],0.015
same,glycan array binding signal (z-score),[5],-0.355
same,glycan array binding signal (z-score),[6],0.019
same,glycan array binding signal (z-score),[7],-0.316
same,glycan array binding signal (z-score),[8],-0.525
same,glycan array binding signal (z-score),[9],-0.547
same,glycan array binding signal (z-score),[10],-0.376
same,glycan array binding signal (z-score),[11],-0.713
same,glycan array binding signal (z-score),[12],0.773
same,glycan array binding signal (z-score),[13],-0.245
same,glycan array binding signal (z-score),[14],-1.03
same,glycan array binding signal (z-score),[15],2.3
same,glycan array binding signal (z-score),[16],-0.432
same,glycan array binding signal (z-score),[17],-0.294
same,glycan array binding signal (z-score),[18],-0.182
same,glycan array binding signal (z-score),[19],-0.721
same,glycan array binding signal (z-score),[20],-0.53
same,glycan array binding signal (z-score),[21],-0.33
same,glycan array binding signal (z-score),[22],-0.111
same,glycan array binding signal (z-score),[23],0.761
same,glycan array binding signal (z-score),[24],-0.507
same,glycan array binding signal (z-score),[25],-0.444
same,glycan array binding signal (z-score),[26],-0.289
same,glycan array binding signal (z-score),[27],-0.496
same,glycan array binding signal (z-score),[28],0.152
same,glycan array binding signal (z-score),[29],-0.366
same,glycan array binding signal (z-score),[30],-0.95
same,glycan array binding signal (z-score),[31],-0.258
same,glycan array binding signal (z-score),[32],-0.01
same,glycan array binding signal (z-score),[33],-0.355
same,glycan array binding signal (z-score),[34],0.156
same,glycan array binding signal (z-score),[35],-0.339
same,glycan array binding signal (z-score),[36],1.18
same,glycan array binding signal (z-score),[37],-0.21
same,glycan array binding signal (z-score),[38],-0.358
same,glycan array binding signal (z-score),[39],-0.237
same,glycan array binding signal (z-score),[40],-0.273
same,glycan array binding signal (z-score),[41],-0.198
same,glycan array binding signal (z-score),[42],0.361
same,glycan array binding signal (z-score),[43],-0.628
same,glycan array binding signal (z-score),[44],0.194
same,glycan array binding signal (z-score),[45],0.411

# Reference: the supplement of paper PMC8728848
